Not every detail of the peptide structures is certain; ends, links or a residue may be inferred. Where a SMILES comes first, the peptide text is derived from it. [ ]: non-standard residue; d: D form. The star is where a group is joined. pNA = O=[N+]([O-])c1ccc(N*)cc1
Assays:
Thrombin (TH) = biological target: T1, Thrombin (TH) (Bos taurus, UniProt P00735); assay: Substrate specificity test: hydrolysis by thrombin, colorimetric; format: biochemical, Bovine; conditions: for Absorbance (O.D.), TH: S0 = 0.4 m mole, pH 8.5, 37° C., 5 minutes, 4.0 NIH/ml enzyme; for Relative reactivity to enzymes, TH: PS-2103N given as 100, S0 = 0.4 m mol
T1 construct: purchased Mochida Pharmaceutical Co., Ltd. Lot No. 65146
Description: (§1) The specificities of newly synthesized substrates were tested by reacting each of them with various enzymes as follows.
(§2) (1) Substrate solution: 2 m moles/liter.H2 O
(§3) (2) Buffer solutions: 50 m moles of tris(hydroxymethyl)aminomethane/hydrochloric acid buffer solution and 150 m moles/liter of NaCl solution were used, and the reaction pH were specified with respect to the enzymes as follows. […]
(§4) (4) Reaction stopper (PNA): 10%-acetic acid
(§5) (5) Chromogenic reagent (CHA): Pentacyanoamineferroate
(§6) (6) Method of determination:
(§7) 0.3 Milliliter of the buffer solution and 0.1 ml of the enzyme reagent were taken in a hard glass test tube of which surface being treated with silicone, or a plastic test tube and preheated in a thermostat at 37° C. for 5 minutes so as to conduct the enzymatic reaction. Precisely 5 minutes after the reaction was started, 2.0 ml of reaction stopper solution or reaction terminating chromogenic reagent was added to terminate the enzymatic reaction. After the enzymatic reaction was completed, the reaction mixture was allowed to stand at 37° C. for 10 minutes, and then the absorbance at 405 nm or 700 nm was measured.

[1] = biological target: T2, Human kallikrein in urine (HUK) (Homo sapiens, UniProt P06870); assay: Substrate specificity test: hydrolysis by human kallikrein in urine, colorimetric; format: biochemical; conditions: for Absorbance (O.D.), HUK: S0 = 0.4 m mole, pH 9.0, 37° C., 5 minutes, 0.1 U/ml enzyme; for Relative reactivity to enzymes, HUK: PS-2103N given as 100, S0 = 0.4 m mol
T2 construct: purchased The Green Cross Corporation Lot No. Y1003SM
Description: as §1, §2, §3, §4, §5, §6, §7

Urokinase (UK) = biological target: T3, Urokinase (UK) (Homo sapiens, UniProt P00749); assay: Substrate specificity test: hydrolysis by urokinase, colorimetric; format: biochemical; conditions: for Absorbance (O.D.), UK: S0 = 0.4 m mole, pH 8.2, 37° C., 5 minutes, 1000 U/ml enzyme; for Relative reactivity to enzymes, UK: PS-2103N given as 100, S0 = 0.4 m mol
T3 construct: purchased Mochida Pharmaceutical Co., Ltd. Lot No. 2C239
Description: as §1, §2, §3, §4, §5, §6, §7

Plasmin (PL) = biological target: T4, Plasmin (PL) (Homo sapiens, UniProt P00747); assay: Substrate specificity test: hydrolysis by plasmin, colorimetric; format: biochemical; conditions: for Absorbance (O.D.), PL: S0 = 0.4 m mole, pH 7.8, 37° C., 5 minutes, 0.25 CU/ml enzyme; for Relative reactivity to enzymes, PL: PS-2103N given as 100, S0 = 0.4 m mol
T4 construct: purchased The Green Cross Corporation Lot No. PL-35
Description: as §1, §2, §3, §4, §5, §6, §7

[2] = 700 nm (CHA substrate, pentacyanoamineferroate)

T4 sequence (P00747 581-810 limits assumed): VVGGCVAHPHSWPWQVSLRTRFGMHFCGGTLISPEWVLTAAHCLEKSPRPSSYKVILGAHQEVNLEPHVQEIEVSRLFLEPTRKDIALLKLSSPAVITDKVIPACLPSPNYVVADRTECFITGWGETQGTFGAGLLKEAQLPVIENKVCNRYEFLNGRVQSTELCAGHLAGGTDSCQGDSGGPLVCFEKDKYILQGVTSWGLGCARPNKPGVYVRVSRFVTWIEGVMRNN
T4 sequence (P00747 97-580 partner limits assumed): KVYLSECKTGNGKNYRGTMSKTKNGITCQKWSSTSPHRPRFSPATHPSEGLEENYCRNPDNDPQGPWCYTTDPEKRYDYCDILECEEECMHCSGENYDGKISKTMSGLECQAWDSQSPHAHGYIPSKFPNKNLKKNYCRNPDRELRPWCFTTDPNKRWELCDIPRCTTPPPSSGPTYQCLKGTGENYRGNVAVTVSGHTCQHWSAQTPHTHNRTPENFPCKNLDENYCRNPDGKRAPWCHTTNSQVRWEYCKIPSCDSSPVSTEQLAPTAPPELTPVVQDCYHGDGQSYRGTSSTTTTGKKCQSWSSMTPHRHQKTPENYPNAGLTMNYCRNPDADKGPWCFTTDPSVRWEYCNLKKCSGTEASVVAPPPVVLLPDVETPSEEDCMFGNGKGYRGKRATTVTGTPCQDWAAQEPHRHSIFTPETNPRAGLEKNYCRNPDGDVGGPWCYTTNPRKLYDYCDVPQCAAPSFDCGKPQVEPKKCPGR
T2 sequence (P06870 25-262): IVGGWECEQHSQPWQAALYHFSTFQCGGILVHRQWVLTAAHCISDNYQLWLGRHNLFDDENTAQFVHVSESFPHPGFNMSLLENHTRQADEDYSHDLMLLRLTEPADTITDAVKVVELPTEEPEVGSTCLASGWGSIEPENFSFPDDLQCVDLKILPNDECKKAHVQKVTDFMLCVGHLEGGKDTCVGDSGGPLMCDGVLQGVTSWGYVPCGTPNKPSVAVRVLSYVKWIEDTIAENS

| Compound | Absorbance (O.D.), TH (Thrombin (TH); [2]) | Absorbance (O.D.), HUK [1, 2] | Absorbance (O.D.), UK (Urokinase (UK); [2]) | Absorbance (O.D.), PL (Plasmin (PL); [2]) | Absorbance (O.D.), TH (Thrombin (TH); 405 nm (PNA substrate)) | Relative reactivity to enzymes, TH (Thrombin (TH)) | Absorbance (O.D.), HUK ([1]; 405 nm (PNA substrate)) | Relative reactivity to enzymes, HUK [1] | Absorbance (O.D.), UK (Urokinase (UK); 405 nm (PNA substrate)) | Relative reactivity to enzymes, UK (Urokinase (UK)) | Absorbance (O.D.), PL (Plasmin (PL); 405 nm (PNA substrate)) | Relative reactivity to enzymes, PL (Plasmin (PL)) | reactivity to thrombin (Thrombin (TH); relative to PS-2103N = 100) | reactivity to urokinase (Urokinase (UK); relative to PS-2103N = 100) | reactivity to plasmin (Plasmin (PL); relative to PS-2103N = 100) |
| --- | --- | --- | --- | --- | --- | --- | --- | --- | --- | --- | --- | --- | --- | --- | --- |
| CC(C)[C@@H](N)C(=O)N[C@@H](Cc1ccccc1)C(=O)N[C@@H](CCCNC(=N)N)C(=O)Nc1ccc(O)c(C(=O)O)c1 [PS-2101, H-D-Val-Phe-Arg-CHA] | 0.025 OD | 0.501 OD | 0.0 OD | 0.025 OD | – | – | – | – | – | – | – | – | – | – | – |
| C[C@@H](N)C(=O)N[C@@H](Cc1ccccc1)C(=O)N[C@@H](CCCNC(=N)N)C(=O)Nc1ccc([N+](=O)[O-])cc1 [PS-2103N, H-D-Ala-Phe-Arg-PNA, reference compound] (H-[dA]-Phe-Arg-pNA) | – | – | – | – | 0.047 OD | 100 | 0.109 OD | 100 | 0.006 OD | 100 | 0.125 OD | 100 | – | – | – |
| N=C(N)NCCC[C@H](NC(=O)[C@H](Cc1ccccc1)NC(=O)[C@H](N)CCCCN)C(=O)Nc1ccc(O)c(C(=O)O)c1 [PS-2106, H-D-Lys-Phe-Arg-CHA] | 0.008 OD | 0.193 OD | 0.0 OD | 0.031 OD | – | – | – | – | – | – | – | – | – | – | – |
| CC(C)C[C@@H](N)C(=O)N[C@@H](Cc1ccccc1)C(=O)N[C@@H](CCCNC(=N)N)C(=O)Nc1ccc(O)c(C(=O)O)c1 [PS-2105, H-D-Leu-Phe-Arg-CHA] | 0.054 OD | 0.144 OD | 0.0 OD | 0.044 OD | – | – | – | – | – | – | – | – | – | – | – |
| N=C(N)NCCC[C@H](NC(=O)[C@H](Cc1ccccc1)NC(=O)[C@H](N)Cc1ccccc1)C(=O)Nc1ccc(O)c(C(=O)O)c1 [PS-2104, H-D-Phe-Phe-Arg-CHA] | 0.025 OD | 0.172 OD | 0.0 OD | 0.021 OD | – | – | – | – | – | – | – | – | – | – | – |
| CC(C)C[C@H](NC(=O)[C@H](N)C(C)C)C(=O)N[C@@H](CCCNC(=N)N)C(=O)Nc1ccc([N+](=O)[O-])cc1 [Substrate S-2266, H-D-Val-Leu-Arg-PNA, reference compound] (H-[dV]-Leu-Arg-pNA) | – | – | – | – | 0.065 OD | 138 | 0.245 OD | 225 | 0.013 OD | 217 | 0.067 OD | 54 | 138% | 217% | 54% |
